In article PMC5834211:
Results are given in words; binding and its absence hold for the method and conditions named. Binding seen in cells or lysates may run through a third protein. Some binding calls cover weakened binding; strength is not graded here. Where a sequence is shown, tags or fusion partners need not be part of it.

The chains behind the UniProt entries cited, without tags or fusion partners.
UniProt Q7Z434: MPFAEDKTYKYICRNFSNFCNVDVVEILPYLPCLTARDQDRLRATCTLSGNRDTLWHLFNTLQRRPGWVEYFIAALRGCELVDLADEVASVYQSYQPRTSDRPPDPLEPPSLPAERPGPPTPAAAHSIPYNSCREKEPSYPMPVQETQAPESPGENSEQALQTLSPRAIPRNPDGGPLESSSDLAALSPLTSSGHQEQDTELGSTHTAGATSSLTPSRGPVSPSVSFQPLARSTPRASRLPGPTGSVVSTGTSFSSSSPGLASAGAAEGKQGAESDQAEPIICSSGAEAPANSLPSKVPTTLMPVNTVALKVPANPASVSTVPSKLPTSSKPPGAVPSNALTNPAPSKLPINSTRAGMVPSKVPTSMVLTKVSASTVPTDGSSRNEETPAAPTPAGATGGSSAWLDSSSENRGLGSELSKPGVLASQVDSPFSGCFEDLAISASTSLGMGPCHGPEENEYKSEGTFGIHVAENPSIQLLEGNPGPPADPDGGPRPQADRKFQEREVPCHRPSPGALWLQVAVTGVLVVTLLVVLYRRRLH

Key:
[1] = molecular target: T1, HA-DHX29a [1-530 aa] (human) (UniProt Q7Z478); experiment: co-IP; 293T cells cotransfected; whole cell lysates immunoprecipitated with anti-HA beads, immunoblotted with anti-Flag (Fig 5A, Fig 6A); also in RIG-I knockout 293T cells (S5D Fig)
T1 sequence: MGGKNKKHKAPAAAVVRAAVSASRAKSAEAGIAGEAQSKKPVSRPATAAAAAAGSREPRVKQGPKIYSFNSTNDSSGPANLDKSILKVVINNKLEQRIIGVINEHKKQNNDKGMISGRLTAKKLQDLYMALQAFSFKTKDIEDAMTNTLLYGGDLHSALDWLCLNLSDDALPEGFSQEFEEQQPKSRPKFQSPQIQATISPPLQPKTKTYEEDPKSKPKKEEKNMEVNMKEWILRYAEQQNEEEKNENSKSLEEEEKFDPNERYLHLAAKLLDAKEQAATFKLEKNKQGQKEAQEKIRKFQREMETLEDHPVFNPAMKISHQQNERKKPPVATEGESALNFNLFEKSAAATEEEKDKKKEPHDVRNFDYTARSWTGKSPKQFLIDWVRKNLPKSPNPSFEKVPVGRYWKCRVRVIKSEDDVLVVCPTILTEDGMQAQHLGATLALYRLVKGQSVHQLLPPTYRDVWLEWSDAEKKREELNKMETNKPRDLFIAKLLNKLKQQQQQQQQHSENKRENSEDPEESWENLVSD

[2] = molecular target: T2, HA-DHX29c [530-1369 aa] (human) (UniProt Q7Z478); experiment: as above
T2 sequence: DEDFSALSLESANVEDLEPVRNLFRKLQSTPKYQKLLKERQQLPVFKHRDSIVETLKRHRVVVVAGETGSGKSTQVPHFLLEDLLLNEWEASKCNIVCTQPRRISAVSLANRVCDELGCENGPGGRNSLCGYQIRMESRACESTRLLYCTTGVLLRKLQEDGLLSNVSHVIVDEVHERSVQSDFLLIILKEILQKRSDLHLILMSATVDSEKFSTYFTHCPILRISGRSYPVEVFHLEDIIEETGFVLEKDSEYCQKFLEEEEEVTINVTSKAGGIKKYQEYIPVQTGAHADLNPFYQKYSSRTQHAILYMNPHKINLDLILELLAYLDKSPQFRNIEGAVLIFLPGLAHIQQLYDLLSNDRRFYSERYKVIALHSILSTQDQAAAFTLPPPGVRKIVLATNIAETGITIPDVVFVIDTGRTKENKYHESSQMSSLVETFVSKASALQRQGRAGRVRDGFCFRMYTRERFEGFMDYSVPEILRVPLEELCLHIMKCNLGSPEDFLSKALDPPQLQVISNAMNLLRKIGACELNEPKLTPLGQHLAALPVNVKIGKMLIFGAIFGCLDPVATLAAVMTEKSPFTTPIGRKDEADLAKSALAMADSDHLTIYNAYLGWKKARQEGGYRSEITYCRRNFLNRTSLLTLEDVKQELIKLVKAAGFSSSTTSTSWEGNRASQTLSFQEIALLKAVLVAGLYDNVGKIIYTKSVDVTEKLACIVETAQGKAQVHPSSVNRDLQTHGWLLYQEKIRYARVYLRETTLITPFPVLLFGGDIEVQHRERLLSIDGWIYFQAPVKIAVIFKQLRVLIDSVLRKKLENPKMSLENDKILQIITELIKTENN

[3] = molecular target: T3, HA-DHX29b [1-830 aa] (human) (UniProt Q7Z478); experiment: as above
T3 sequence: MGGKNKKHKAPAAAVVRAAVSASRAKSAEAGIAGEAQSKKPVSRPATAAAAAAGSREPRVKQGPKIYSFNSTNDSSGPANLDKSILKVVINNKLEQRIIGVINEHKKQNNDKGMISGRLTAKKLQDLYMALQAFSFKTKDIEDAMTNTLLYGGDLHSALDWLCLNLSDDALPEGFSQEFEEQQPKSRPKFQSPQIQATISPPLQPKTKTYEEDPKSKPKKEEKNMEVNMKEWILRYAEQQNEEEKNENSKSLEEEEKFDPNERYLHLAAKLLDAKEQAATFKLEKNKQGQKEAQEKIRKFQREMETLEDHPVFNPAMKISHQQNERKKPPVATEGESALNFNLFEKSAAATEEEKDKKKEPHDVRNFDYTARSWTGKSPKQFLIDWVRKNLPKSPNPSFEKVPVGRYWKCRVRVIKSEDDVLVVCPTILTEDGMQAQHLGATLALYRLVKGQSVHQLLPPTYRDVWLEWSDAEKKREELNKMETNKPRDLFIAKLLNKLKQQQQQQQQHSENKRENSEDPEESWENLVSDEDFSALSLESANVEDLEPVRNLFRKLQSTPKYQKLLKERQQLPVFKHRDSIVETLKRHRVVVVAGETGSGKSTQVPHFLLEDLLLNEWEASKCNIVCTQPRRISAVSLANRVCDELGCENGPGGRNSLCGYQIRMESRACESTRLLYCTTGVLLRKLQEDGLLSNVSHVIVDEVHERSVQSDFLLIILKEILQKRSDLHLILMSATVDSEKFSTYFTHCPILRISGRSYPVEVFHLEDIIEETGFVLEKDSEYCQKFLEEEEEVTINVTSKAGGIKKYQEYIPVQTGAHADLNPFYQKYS

[4] = molecular target: Flag-MAVS (UniProt Q7Z434); experiment: co-IP; 293T cells expressing Flag-MAVS and Flag-MDA5 (as the legend prints), DHX29 siRNA or scrambled siRNA, stimulated with intracellular HMW Poly(I:C); immunoprecipitated with anti-HA antibody, immunoblotted with anti-HA and anti-Flag

binding [1]: binds | binding [2]: no binding | binding [3]: binds | binding [4]: binds
B1: Flag-MDA5 (full-length, FL-MDA5) (protein, UniProt Q9BYX4 1-1025)
chain: MSNGYSTDENFRYLISCFRARVKMYIQVEPVLDYLTFLPAEVKEQIQRTVATSGNMQAVELLLSTLEKGVWHLGWTREFVEALRRTGSPLAARYMNPELTDLPSPSFENAHDEYLQLLNLLQPTLVDKLLVRDVLDKCMEEELLTIEDRNRIAAAENNGNESGVRELLKRIVQKENWFSAFLNVLRQTGNNELVQELTGSDCSESNAEIENLSQVDGPQVEEQLLSTTVQPNLEKEVWGMENNSSESSFADSSVVSESDTSLAEGSVSCLDESLGHNSNMGSDSGTMGSDSDEENVAARASPEPELQLRPYQMEVAQPALEGKNIIICLPTGSGKTRVAVYIAKDHLDKKKKASEPGKVIVLVNKVLLVEQLFRKEFQPFLKKWYRVIGLSGDTQLKISFPEVVKSCDIIISTAQILENSLLNLENGEDAGVQLSDFSLIIIDECHHTNKEAVYNNIMRHYLMQKLKNNRLKKENKPVIPLPQILGLTASPGVGGATKQAKAEEHILKLCANLDAFTIKTVKENLDQLKNQIQEPCKKFAIADATREDPFKEKLLEIMTRIQTYCQMSPMSDFGTQPYEQWAIQMEKKAAKEGNRKERVCAEHLRKYNEALQINDTIRMIDAYTHLETFYNEEKDKKFAVIEDDSDEGGDDEYCDGDEDEDDLKKPLKLDETDRFLMTLFFENNKMLKRLAENPEYENEKLTKLRNTIMEQYTRTEESARGIIFTKTRQSAYALSQWITENEKFAEVGVKAHHLIGAGHSSEFKPMTQNEQKEVISKFRTGKINLLIATTVAEEGLDIKECNIVIRYGLVTNEIAMVQARGRARADESTYVLVAHSGSGVIEHETVNDFREKMMYKAIHCVQNMKPEEYAHKILELQMQSIMEKKMKTKRNIAKHYKNNPSLITFLCKNCSVLACSGEDIHVIEKMHHVNMTPEFKELYIVRENKALQKKCADYQINGEIICKCGQAWGTMMVHKGLDLPCLKIRNFVVVFKNNSTKKQYKKWVELPITFPNLDYSECCLFSDED
